{"source": "PubChem BioAssay AID588342", "about": "(National Center for Advancing Translational Sciences (NCATS), 2011)", "note": "In all, about 360,000 compounds went through this assay and about 25,000 (6.9%) were called active. The inconclusive results got no clear call from the source; some entries with a clear call stand among them for comparison. Calls come from the whole dose curve; as a rule, active = well fitted inhibition curve with a large enough effect; inconclusive = small, poorly fitted or top-dose-only effect; inactive = flat fitted curve, though single readings scatter. Potencies beside an inconclusive call are fits to weak or partial responses and may not hold up. Potency is the fitted concentration of half-maximal effect; tags give direction and shape of the fitted curve.", "data": [{"target": "Luciferin 4-monooxygenase (Photinus pyralis) (UniProt P08659)", "sequence (P08659 whole entry, looked up)": "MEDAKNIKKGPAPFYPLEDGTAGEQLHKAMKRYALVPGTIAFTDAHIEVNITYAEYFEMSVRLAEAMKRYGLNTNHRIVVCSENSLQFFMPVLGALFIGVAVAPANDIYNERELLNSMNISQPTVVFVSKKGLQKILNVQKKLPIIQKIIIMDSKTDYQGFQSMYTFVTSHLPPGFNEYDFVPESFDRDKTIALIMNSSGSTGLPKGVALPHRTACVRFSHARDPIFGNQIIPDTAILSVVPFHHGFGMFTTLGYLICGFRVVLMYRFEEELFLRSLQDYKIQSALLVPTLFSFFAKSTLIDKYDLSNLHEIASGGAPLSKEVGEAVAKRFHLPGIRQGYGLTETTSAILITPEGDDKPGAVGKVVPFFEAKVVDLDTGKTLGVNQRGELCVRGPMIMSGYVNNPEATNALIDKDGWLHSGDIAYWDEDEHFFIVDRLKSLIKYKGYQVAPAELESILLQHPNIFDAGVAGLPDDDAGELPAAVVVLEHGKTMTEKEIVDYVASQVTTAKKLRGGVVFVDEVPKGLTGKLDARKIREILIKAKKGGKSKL", "assay": "qHTS profiling assay for firefly luciferase inhibitor/activator using purifed enzyme and Km concentrations of substrates (counterscreen for miR-21 project); note: nearly all actives have a fitted effect of over 55% in size;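 for activity change, negative = inhibition: plate controls were vehicle for no effect and reference inhibitor for full effect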", "conditions": "purified FLuc, luminescence inhibition; series mostly up to 57.5 µM; activity change, negative = inhibition: at the top concentration", "method_in_brief": "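Purified P. pyralis luciferase, 10 nM final, with Km-level 10 uM D-luciferin and 10 uM ATP in 50 mM Tris acetate pH 7.5, 10 mM Mg acetate, 0.01% Tween-20, 0.05% BSA; 6-point qHTS titration about 60 µM downward; luminescence read.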", "values": [{"smiles": "O=C(Nc1nnc(S(=O)(=O)N2CCCC2)s1)c1ccccc1F", "Potency": "inconclusive: 37.9 µM [inhibitor, single point]"}, {"smiles": "Cc1coc2c1c(C)cc1oc(=O)c(CC(=O)N[C@@H](CC(C)C)C(=O)O)c(C)c12", "Potency": "inconclusive: 19 µM [inhibitor, partial curve]"}, {"smiles": "CCOc1ccc(-c2nnc(-c3ccco3)o2)cc1OCC", "Potency": "inconclusive: 37.9 µM [inhibitor, single point]"}, {"smiles": "COc1ccc(C2=NOC(C(=O)NCC(C)C)C2)cc1", "note": "(centres undefined)", "Potency": "inconclusive: 19 µM [inhibitor, partial curve]"}, {"smiles": "O=C(NCCCCc1ccccc1)Nc1cccc(F)c1", "Potency": "inconclusive: 37.9 µM [inhibitor, single point]"}, {"smiles": "C/C(=N\\NC(=S)Nc1ccccc1C)c1cc2ccccc2o1", "Potency": "inconclusive: 37.9 µM [inhibitor, partial curve, poor fit]"}, {"smiles": "O=C(O)c1ccc(-c2nc3ccccc3[nH]2)cc1", "Potency": "active: 15.1 µM"}, {"smiles": "Cc1sc2ccc3sccc3c2[n+]1C", "Potency": "inconclusive: 26.9 µM [inhibitor, partial curve, poor fit]"}, {"smiles": "c1ccc(CC2CCN(c3nnnn3-c3ccccc3)CC2)cc1", "activity change, negative = inhibition": "inactive: 4.9%"}, {"smiles": "Cc1nn(C)c(C)c1S(=O)(=O)Nc1ccc2c(c1)OCO2", "Potency": "inconclusive: 37.9 µM [inhibitor, single point]"}, {"smiles": "O=C(NCc1ccccc1)C(c1ccco1)N(C(=O)c1csnn1)c1ccccc1", "note": "(centres undefined)", "activity change, negative = inhibition": "inactive: 1.64%"}, {"smiles": "COc1ccc(C(=O)N/N=C(\\CCC(=O)O)c2ccc(C(C)(C)C)cc2)cc1OC", "Potency": "inconclusive: 30.1 µM [inhibitor, single point]"}, {"smiles": "Cc1ccc(SCCC(=O)OCC(=O)Nc2ccc(C(N)=O)cc2)cc1", "Potency": "inconclusive: 19 µM [inhibitor, partial curve, poor fit]"}, {"smiles": "CC(C)OC(=O)Nc1ccc2c(c1)N(C(=O)N1CCN(C)CC1)c1ccccc1CC2", "Potency": "active: 6.01 µM"}, {"smiles": "COC(=O)C1=C(C(=O)OC)C(c2ccc(OC)c(OC)c2)c2sc(=O)[nH]c2S1", "note": "(centres undefined)", "Potency": "inconclusive: 30.1 µM [inhibitor, partial curve, poor fit]"}, {"smiles": "CCOC(=O)C1=C(CN2CCCCC2)NC(=O)NC1c1ccc(C)cc1", "note": "(centres undefined)", "activity change, negative = inhibition": "inactive: -13.5%"}, {"smiles": "CCn1c(=S)sc2c(=O)n(-c3ccccc3)c(=S)[nH]c21", "Potency": "inconclusive: 10.7 µM [inhibitor, partial curve]"}, {"smiles": "Cc1ccc(C)n1-c1ccc(-c2nnco2)cc1", "activity change, negative = inhibition": "inactive: -16.4%"}, {"smiles": "O=c1c2sccc2nc(SCc2cc(=O)n3cc(Cl)ccc3n2)n1Cc1ccccn1", "activity change, negative = inhibition": "inactive: -3.21%"}, {"smiles": "N#C/C(=C\\c1ccncc1)c1nc2ccccc2[nH]1", "Potency": "inconclusive: 37.9 µM [inhibitor, single point]"}, {"smiles": "O=C(O)C1=CC(=C(c2ccc(O)c(C(=O)O)c2)c2ccc(O)c(C(=O)O)c2)C=CC1=O", "Potency": "inconclusive: 23.9 µM [inhibitor, single point]"}, {"smiles": "COc1ccc(CC(=O)Nc2ccc(C(C)=O)cc2)cc1", "Potency": "inconclusive: 21.3 µM [inhibitor, partial curve, poor fit]"}, {"smiles": "Cc1cc(C)c(C)c(S(=O)(=O)N(C)C2CCN(C)CC2)c1C", "activity change, negative = inhibition": "inactive: -0.462%"}, {"smiles": "COc1ccc(C)cc1NC(=O)NCCCCc1ccccc1", "Potency": "inconclusive: 23.9 µM [inhibitor, partial curve, poor fit]"}, {"smiles": "COc1ccccc1NC(=O)CC(=O)c1cccc([N+](=O)[O-])c1", "Potency": "inconclusive: 37.9 µM [inhibitor, single point]"}, {"smiles": "O=C(NCC1CCCO1)c1c[nH]c2ccc(S(=O)(=O)Nc3ccc(F)cc3F)cc2c1=O", "note": "(centres undefined)", "Potency": "inconclusive: 9.53 µM [inhibitor, partial curve, poor fit]"}, {"smiles": "Clc1ccc(-n2ncc3c(N4CCCCCC4)ncnc32)cc1", "Potency": "active: 0.19 µM"}, {"smiles": "CC(C)c1ccc(-c2nnn(Cc3nc4ccccc4s3)n2)cc1", "Potency": "inconclusive: 23.9 µM [inhibitor, partial curve, poor fit]"}, {"smiles": "COc1ccc(C(=O)CNc2cccc(F)c2)cc1", "Potency": "active: 10.7 µM"}, {"smiles": "NC(=O)c1ccccc1NC(=O)c1ccc2ccccc2c1", "Potency": "active: 0.536 µM"}, {"smiles": "O=C(Nc1nnc(C2CC2)s1)c1ccccn1", "Potency": "active: 10.7 µM"}, {"smiles": "O=c1cc(-c2ccccc2)oc2ccccc12", "Potency": "inconclusive: 21.3 µM [inhibitor, single point]"}, {"smiles": "CSc1nc(-c2ccc(Cl)cc2)c(C#N)c(=O)n1C", "activity change, negative = inhibition": "inactive: -0.147%"}, {"smiles": "COc1ccc(OCC(=O)OCC(=O)Nc2ccc3[nH]c(=O)[nH]c3c2)cc1", "activity change, negative = inhibition": "inactive: 1.05%"}, {"smiles": "CCOC(=O)CNC(=O)CSc1nc(-c2ccc(OC)cc2)ns1", "Potency": "active: 12 µM"}, {"smiles": "COc1ccccc1-c1cc2nc(C)cc(C)n2n1", "Potency": "active: 15.1 µM"}, {"smiles": "CCCCc1nc2cc(C(=O)N(C)C3CCOCC3)ccc2o1", "Potency": "active: 13.5 µM"}, {"smiles": "CC(C)Oc1cccc(C(=O)NC(=S)Nc2cccnc2)c1", "Potency": "inconclusive: 23.9 µM [inhibitor, partial curve]"}, {"smiles": "CCOc1ccc(NC(=O)Nc2cc(-c3ccccc3)sc2C(=O)OC)cc1", "Potency": "inconclusive: 30.1 µM [inhibitor, partial curve, poor fit]"}, {"smiles": "COc1ccccc1C(=O)NC(CCSC)C(=O)N1CCN(C/C=C/c2ccccc2)CC1", "note": "(centres undefined)", "activity change, negative = inhibition": "inactive: 11.5%"}, {"smiles": "COc1ccc(/C=C2\\CCc3ccccc3C2=O)c(OC)c1OC", "Potency": "inconclusive: 21.3 µM [inhibitor, partial curve]"}, {"smiles": "Cc1ccc(NC(=O)Cn2c(O)c(N=NC(=O)c3cc([N+](=O)[O-])ccc3O)c3ccccc32)cc1", "Potency": "inconclusive: 23.9 µM [inhibitor, partial curve]"}, {"smiles": "COc1cccc(-n2nc3c(=S)[nH]nc(C)c3c2C)c1", "activity change, negative = inhibition": "inactive: 2.71%"}, {"smiles": "CCOC(=O)N/N=C\\c1ccc(OC/C=C/c2ccccc2)c(OC)c1", "Potency": "active: 12 µM"}, {"smiles": "COCCCNc1nc(N)c([N+](=O)[O-])c(Nc2ccccc2OC)n1", "activity change, negative = inhibition": "inactive: 1.33%"}, {"smiles": "CC(C)(C)OC(=O)N[C@@H](CC(=O)OCc1ccccc1)C(=O)O", "activity change, negative = inhibition": "inactive: 2.8%"}, {"smiles": "O=C(CNC(=O)N1CC(=O)Nc2ccccc21)Nc1cccc(F)c1", "activity change, negative = inhibition": "inactive: 0.369%"}, {"smiles": "CC1CC(=O)N(CC(=O)Nc2ccc(F)cc2F)c2ccccc2S1", "note": "(centres undefined)", "activity change, negative = inhibition": "inactive: -7.6%"}, {"smiles": "Oc1cccc(/C=N/c2c(-c3ccco3)nc3ccccn23)c1", "Potency": "active: 6.01 µM"}]}]}
